# In all, about 16,000 sequences were measured (“Z-score”: median about -0.37, highest 2% from about 3.2 on). Some of the results follow.
# System: RBM10 RRM1-ZnF (GST-tagged construct)
# Assay: RNAcompete 7-mer binding Z-score; higher = stronger binding preference
# Method: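 RNAcompete: 20 pmol GST-tagged RBM10 RNA-binding constructs were incubated with a designed RNA pool of about 241,000 sequences up to 41 nt (1.5 nmol) on glutathione beads for 30 min at 4 °C and washed. Bound RNAs were identified by microarray hybridisation. Each RNA 7-mer is scored by a one-sided Z-score of its enrichment, computed over probes that contain the 7-mer within longer pool sequences.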
row,Sequence,RNAcompete 7-mer binding Z-score
1,GGUUUGU,1.25
2,CGGCAAG,0.209
3,AGACAGU,-0.249
4,ACCCGGA,-0.441
5,CCGAUGC,-0.694
6,UUCGGGA,0.878
7,UUUGAGG,0.495
8,AACGACA,-0.337
9,AAAUGUC,-0.529
10,UCGUUUU,-0.6
11,CAAAGAC,-0.363
12,CCGAGUG,0.043
13,GCCGGGC,-0.126
14,GGCGGUU,1.14
15,UUUGGCA,-0.412
16,AGUACGU,-0.149
17,CCCUCUU,-0.795
18,GGUAGAG,3.37
19,UGCAGGC,0.248
20,GUAGUCC,-0.0902
21,UAGGUGC,1.07
22,UUCGGUC,-0.457
23,UUCGGUU,0.0723

row,Sequence,RNAcompete 7-mer binding Z-score
1,GUUGGUC,0.706
2,UAGGCUG,0.508
3,GACGUAC,-0.22
4,ACUGAGC,-0.223
5,UUGGGCG,2.3
6,GAGUCAU,-0.214
7,UGGGCGG,3.38
8,AGCAGCA,-0.165
9,AUGUGAU,0.231
10,AUUUCUA,-0.876
11,GAAAGAU,0.456
12,GGAGGAC,1.86
13,GGACGCU,0.153
14,CUCCUAU,-0.844
15,GAGACUC,-0.435
16,CCACGCU,-0.5
17,GUUGUGC,0.391
18,AUGUGGG,3.84
19,GAGGUAC,1.37
20,GGAAGCC,0.511
21,GCCAAAU,-0.711
22,ACGUAGA,0.391
23,CUAUGUA,-0.451

row,Sequence,RNAcompete 7-mer binding Z-score
1,GUAGUAA,0.374
2,CUUACUG,-0.665
3,CUGAAAG,-0.269
4,GGCAGGG,3.16
5,GCAGCAA,-0.126
6,UCGAAGC,-0.36
7,UUAAUAC,-0.578
8,UGGGAGG,4.4
9,UGCCAGA,-0.626
10,AACUGCU,-0.753
11,AAUGGUA,2.63
12,ACCUGGG,0.469
13,GCCAACC,-0.558
14,GCGCCCU,-0.386
15,CGAUACA,-0.392
16,CAACGUA,-0.353
17,GGCUGGU,1.31
18,CCUUUGC,-1.02
19,CGUGGAU,1.34
20,UCUUGAG,-0.629
21,CUCAAGG,0.218
22,GCCUUCA,-0.779
23,AAUAGAU,0.0885

row,Sequence,RNAcompete 7-mer binding Z-score
1,CGCGUGC,-0.223
2,UUCCACG,-0.636
3,CUACGAU,-0.292
4,AAAGUAU,-0.21
5,ACGCGCU,-0.457
6,UACUGUG,-0.194
7,UUAUUGG,0.374
8,AAAAGAU,-0.23
9,UAACUAA,-0.448
10,CUCGUUA,-0.649
11,CACUGGC,-0.308
12,CCACAUG,-0.373
13,UACGCUU,-0.73
14,UCGGACG,0.0235
15,CGGACUG,0.248
16,CUUUCGU,-0.854
17,UAGAGAA,0.573
18,UAAGCCG,-0.474
19,AGUGUGU,0.589
20,CGGCAGC,-0.0869
21,CCGAGAG,-0.334
22,CAUAGCG,-0.467
23,UAGACGG,1.47

row,Sequence,RNAcompete 7-mer binding Z-score
1,UGAAUAA,-0.155
2,UUAAAAC,-0.578
3,AGUUAUG,0.14
4,CACAUGA,-0.409
5,CCACUCA,-0.633
6,CCAACUU,-0.828
7,ACAUAAC,-0.594
8,ACGUGAC,-0.249
9,AAGAUAG,0.829
10,AGUAGAU,0.335
11,CUUGACG,-0.548
12,UCAGACC,-0.675
13,CGCCCAC,-0.431
14,UCCAAUU,-0.707
15,CUGCGUU,-0.454
16,GUUGAUU,-0.171
17,GUCUUAC,-0.678
18,CGAAAGU,-0.435
19,CCCAUCC,-0.5
20,CGGUCAC,-0.0187
21,CGCAGCC,-0.675
22,AUAUGGU,2.02
23,UCAAAAC,-0.392

row,Sequence,RNAcompete 7-mer binding Z-score
1,UUCUCCG,-0.594
2,CUUGGCU,-0.561
3,CUCCGUA,-0.668
4,CCUCGCU,-0.681
5,CAAACUA,-0.591
6,UGCGACG,0.238
7,CCAAAGG,0.0398
8,UGGAAAA,1.39
9,UAAAUGG,1.44
10,UCUCAAA,-0.714
11,AAACUGG,0.696
12,GAGGUGC,1.81
13,GGUAACC,0.979
14,ACUCCGA,-0.685
15,GGUUUAA,0.735
16,GACGUUA,-0.188
17,CAUCUAG,-0.396
18,UUCGCUA,-0.811
19,CAGACCA,-0.574
20,AGAGCUA,-0.415
21,CCACAAG,-0.522
22,AUAUUAU,-0.402
23,CAAUAGU,-0.279

row,Sequence,RNAcompete 7-mer binding Z-score
1,AAACAUU,-0.587
2,UUUGAAG,-0.178
3,UUCCCUA,-0.828
4,ACUUCUC,-0.841
5,GCCUCUC,-0.75
6,AUUAACU,-0.652
7,GUUUUGC,-0.0837
8,GCGAGAC,0.251
9,UUUGGCU,-0.568
10,AUCUGUG,-0.623
11,UGACCCU,-0.591
12,UAUCAUA,-0.493
13,CUGCUCC,-0.74
14,AAAAUUG,0.144
15,GUCUCGG,0.15
16,AGUACUC,-0.704
17,UCGCCAU,-0.678
18,CGCCGUG,-0.204
19,GGGAGGG,4.74
20,UCGGCGA,0.0593
21,AAUCAUC,-0.753
22,AGCAGAA,0.693
23,AACCAAC,-0.646

row,Sequence,RNAcompete 7-mer binding Z-score
1,CUGACGG,0.592
2,CUCAUCU,-0.883
3,AAGCAUU,-0.665
4,UCUCACC,-0.785
5,AAUUUUA,-0.639
6,GGAGAUC,1.12
7,UUUUCUG,-0.646
8,CACCGCU,-0.636
9,GUCUUAG,-0.535
10,UAGGAUG,2.39
11,UAAAACU,-0.574
12,UCUUAUU,-0.896
13,CGUCAUU,-0.675
14,AAGUUCA,-0.389
15,CGGGGAC,2.19
16,CCGGGAU,0.55
17,CAAGGCG,0.829
18,CCAUAGC,-0.805
19,CAUGAGC,-0.383
20,CGAGGUU,0.846
21,CGUAAGG,0.833
22,GCGUCAU,-0.6

# Reference: the supplement of paper PMC5499739
